Here are results for three molecules from US20250177530A1, “MOLECULES THAT BIND TO ENPP1 POLYPEPTIDES” (UNIVERSITY OF PITTSBURGH - OF THE COMMONWEALTH SYSTEM OF …, priority 2022, published 2025).

Data set [1] concerns 293T-ENPP1 cells. Kind of data set: ADCC reporter bioassay. The following applies: serial diluted IgG1, 293T-ENPP1 target cells. It is filed as cell-based. How it is done:
The cell-killing activity of anti-ENPP1 CAR^+ T cells and BiTEs were measured by LDH-Glo cytotoxicity assay kit (Promega, Madison, WI, USA). For the cell-killing activity of anti-ENPP1 CAR^+ T cells, control T cells or CAR^+ T cells as effector cells were incubated with 293T, 293T-ENPP1, and HepG2 target cells (5×10^3 cells/well in 96-well plate) separately at indicated E:T ratio for 24 hours at 37° C. For the cell-killing activity of BiTEs, target cells (1×10^4 cells/well) were mixed with serially diluted BiTEs in 50 μL of growth medium, and […] activated T cells were added at the ET ratio 10:1 and cultured for 24 hours at 37° C. in 5% CO2 humidified atmosphere. Controls for the calculation of percentage cytotoxicity were performed according to the manufacturer's instructions. The calculation of relative % cytotoxicity as follows: relative % cytotoxicity=100×(Experimental LDH release-medium background)/(target and effector maximum LDH release control-medium background). For the cell-killing activity of ADC, 293T, 293T-ENPP1, and HepG2 cells were seeded at 2000 cells/well in 96-well white plate and incubated overnight at 37° C. in 5% CO2. […] The calculation of % Relative cell viability was as follows: % Relative cell viability=100×(Experimental luminescence values-medium Background)/(Control luminescence values-medium Background). […]

A short description of data set [2]: Size-exclusion chromatography (SEC) aggregation evaluation. The following applies: Superdex 200 Increase 10/300 GL, DPBS. Format: physicochemical. As for the experimental part: The purity and structure of the antibodies were analyzed by Superdex 200 Increase 10/300 GL chromatography (GE Healthcare, Chicago, IL, USA). Briefly, the proteins ferritin, aldolase, conalbumin, ovalbumin, carbonic anhydrase, and ribonuclease were used for calibration. A 500 μL sample mix containing the above proteins was loaded into the column and separated by the ÄKTA explorer machine (GE Healthcare, Chicago, IL, USA). For the antibody analysis, 100 μL of filtered antibodies (2 mg/mL) in 1×DPBS (Dulbecco's phosphate-buffered saline, Gibco, Waltham, MA, USA) was analyzed. Antibodies were eluted by DPBS buffer at a flow rate of 0.5 mL/minute.
A general note: Size exclusion chromatography separates by hydrodynamic size, large species first.

Data set [3] relates to 293T-ENPP1 cells. Kind of data set: IgG1 internalization by flow cytometry. It is filed as cell-based. The following applies: pHrodo Deep Red labeled IgG1, 37° C., 2 hours. How it is done:
FIGS. 7A-7B. Internalization of IgG1 by ENPP1 positive and negative cell lines.
To access the cell cytotoxicity of anti-ENPP1 IgG1-MMAE ADC, the IgG1 internalization between 293T cells and 293T-ENPP1 cells was investigated by flow cytometry. […] Next, the ADC killing effects with HepG2 cancer cells, which have a lower expression level of ENPP1, were tested. […] When compared with the 293T cell line, the HepG2 was more sensitive to MMAE.
On the technique in general: A flow cytometer gives signals particle by particle.

Data set [4] deals with 293T-ENPP1 cells. Kind of data set: Flow cytometry cell surface binding. Format: cell-based. The note with it: 100 nM, ENPP1 positive 293T-ENPP1 cells. How it is done:
(§1) To detect the cells surface expression levels of ENPP1 protein, the cells were stained with anti-ENPP1/PC1 antibody (Abcam, Cambridge, UK) for 30 minutes at 4° C. and then stained with Alexa Fluor 488-conjugated goat anti-rabbit IgG H&L (Abcam) for 30 minutes at 4° C. To determine the cell surface binding of the isolated antibodies, cells were incubated with hlgG1 17, hlgG1 3G12, scFv 17, or scFv 3G12 for 1 hour at 4° C. and then stained with PE-conjugated goat anti-human IgG (Sigma-Aldrich) or APC-conjugated anti-FLAG (Miltenyi Biotec) for 30 minutes at 4° C. For anti-ENPP1-CAR expression on T cells, CD4^+ T and CD8^+ T cells were gated by using PerCP conjugated anti-human CD3 antibody (Biolegend, San Diego, CA, USA) and followed by APC conjugated anti-human CD4 antibody (Biolegend) and FITC conjugated anti-human CD8 antibody (Biolegend) separately, and CAR expression was examined by using biotinylated ENPP1 followed by PE Streptavidin (Biolegend).

The subject of data set [5] is HepG2 cells. Kind of data set: Flow cytometry cell surface binding. It is filed as cell-based. The note with it: 100 nM, HepG2 cells (low ENPP1 expression). As for the experimental part:
as §1

Another data set deals with 293T cells. Kind of data set: Flow cytometry cell surface binding. It is filed as cell-based. The following applies: 100 nM, ENPP1 negative 293T cells. How it is done:
as §1

For the next data set, the target named is T1, recombinant ENPP1 (Homo sapiens, UniProt P22413).
T1 construct: designed to express the ENPP1 extracellular domain fused with a His6-FLAG tag; His6-FLAG; made in house; host or cells: Expi293 cells (transient, pIW-Zeocin vector), purified on Nickel resin
T1 sequence (P22413 98-925 limits assumed): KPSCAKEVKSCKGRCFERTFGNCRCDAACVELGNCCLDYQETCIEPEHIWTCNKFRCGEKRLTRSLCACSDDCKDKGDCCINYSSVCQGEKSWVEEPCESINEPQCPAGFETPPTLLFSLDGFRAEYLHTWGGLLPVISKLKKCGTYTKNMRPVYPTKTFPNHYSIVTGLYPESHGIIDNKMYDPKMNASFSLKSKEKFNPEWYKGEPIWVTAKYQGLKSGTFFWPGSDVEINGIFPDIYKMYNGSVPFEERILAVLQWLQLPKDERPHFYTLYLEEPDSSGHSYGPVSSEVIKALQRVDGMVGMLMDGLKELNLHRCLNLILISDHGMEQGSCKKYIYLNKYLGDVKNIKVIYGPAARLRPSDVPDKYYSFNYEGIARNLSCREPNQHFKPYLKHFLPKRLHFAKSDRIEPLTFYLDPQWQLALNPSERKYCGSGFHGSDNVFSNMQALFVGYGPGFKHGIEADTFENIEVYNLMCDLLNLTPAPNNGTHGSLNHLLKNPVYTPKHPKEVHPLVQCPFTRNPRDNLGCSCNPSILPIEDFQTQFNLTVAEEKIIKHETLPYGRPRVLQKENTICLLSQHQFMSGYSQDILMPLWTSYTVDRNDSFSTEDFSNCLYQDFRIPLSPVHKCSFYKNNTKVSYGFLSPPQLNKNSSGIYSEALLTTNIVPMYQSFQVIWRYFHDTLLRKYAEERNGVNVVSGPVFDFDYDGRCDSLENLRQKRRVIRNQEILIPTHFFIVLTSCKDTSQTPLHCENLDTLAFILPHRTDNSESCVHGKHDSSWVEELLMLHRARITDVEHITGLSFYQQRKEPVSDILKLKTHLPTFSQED
Kind of data set: BLItz biolayer interferometry affinity/avidity. It is filed as binding. The note with it: ENPP1-Biotin on streptavidin biosensor, read-out: equilibrium dissociation constant (KD). As for the experimental part: The affinity and avidity of the anti-hENPP1 antibody were detected by biolayer interferometry BLItz (ForteBio, Menlo Park, CA, USA). Briefly, DPBS was used to establish a baseline for 30 seconds, and streptavidin biosensor (ForteBio) was coated with 16.7 μg/mL recombinant ENPP1-Biotin for 2 minutes. Different doses of IgG1 and Fab were used for association and monitored for 2 minutes to measure the avidity and affinity. Antigen-coated biosensors with PBS served as a reference control. The dissociation was monitored in DPBS for 4 minutes.
In general terms: BLI is a label-free optical method that tracks binding on a fibre tip over time.

The test system of data set [6] is 293T-ENPP1 cells. Kind of data set: ADC cytotoxicity (Cell Titer-Glo cell viability). The following applies: 4 days. Format: cell-based. As for the experimental part: (§2) The cell-killing activity of anti-ENPP1 CAR^+ T cells and BiTEs were measured by LDH-Glo cytotoxicity assay kit (Promega, Madison, WI, USA). For the cell-killing activity of anti-ENPP1 CAR^+ T cells, control T cells or CAR^+ T cells as effector cells were incubated with 293T, 293T-ENPP1, and HepG2 target cells (5×10^3 cells/well in 96-well plate) separately at indicated E:T ratio for 24 hours at 37° C. For the cell-killing activity of BiTEs, target cells (1×10^4 cells/well) were mixed with serially diluted BiTEs in 50 μL of growth medium, and […] activated T cells were added at the ET ratio 10:1 and cultured for 24 hours at 37° C. in 5% CO2 humidified atmosphere. Controls for the calculation of percentage cytotoxicity were performed according to the manufacturer's instructions. The calculation of relative % cytotoxicity as follows: relative % cytotoxicity=100×(Experimental LDH release-medium background)/(target and effector maximum LDH release control-medium background). For the cell-killing activity of ADC, 293T, 293T-ENPP1, and HepG2 cells were seeded at 2000 cells/well in 96-well white plate and incubated overnight at 37° C. in 5% CO2. Serial diluted anti-ENPP1 ADC was added and cultured for 4 days at 37° C. in 5% CO2. Images were captured under a 4×objective microscope (Olympus microscope, Westborough, MA, USA). Controls with cells only were used for calculation of percent relative cell viability. At the end of the time point, the Cell Titer-Glo Luminescent cell viability assay kit (Promega) was used to measure the cell viability. The calculation of % Relative cell viability was as follows: % Relative cell viability=100×(Experimental luminescence values-medium Background)/(Control luminescence values-medium Background). For ADCC, the ADCC reporter bioassay complete kit (Promega) was used, the experiment was performed following the manufacturer's instructions. The 293T-ENPP1 cell line was used as target cell.

Data set [7] deals with HepG2 cells. Nature of the data set: ADC cytotoxicity (Cell Titer-Glo cell viability). Format: cell-based. The following applies: 200 nM. As for the experimental part:
as §2

Numbering of substitutions follows the chain as printed.

B1: IgG1 3G12: Fab 3G12 converted to bivalent antibody by fusion with human IgG1 Fc; HC SEQ ID NO:289, LC SEQ ID NO:288 (antibody)
heavy: QVQLVESGGGLVKPGGSLRLSCAASGFTFSDYYMSWIRQAPGKGLEWVSYISSSGSTIYYADSVKGRFTISRDNAKNSLYLQMNSLRAEDTAVYYCAREVYYYDSSGYYTYYFDYWGQGTLVTVSS[human IgG1 constant region not spelt out]
light: DIQMTQSPSSLSASVGDRVTITCRASQSISSYLNWYQQKPGKAPKLLIYAASSLQSGVPSRFSGSGSGTDFTLTISSLQPEDVAVYYCQQYYTSRITFGQGTKLEIKRTVAAPSVFIFPPSDEQLKSGTASVVCLLNNFYPREAKVQWKVDNALQSGNSQESVTEQDSKDSTYSLSSTLTLSKADYEKHKVYACEVTHQGLSSPVTKSFNRGEC
As for B1, in the data set with 293T-ENPP1 cells [1], the ADCC activity result is “no effects on inducing ADCC”. For the same molecule, the “form / high molecular weight species measured by SEC” value in [2] is “monomer and had no high molecular weight species”. Also, the internalization entry with 293T-ENPP1 cells [3] is “efficiently and highly internalized”. Further, the “cell surface binding of IgG1” value with 293T-ENPP1 cells [4] is recorded as “specific binding”; in the data set with HepG2 cells [5] it was 12%; with 293T cells, “no binding effects”. The Kd with recombinant ENPP1 was determined as 4.16 nM.

B2: MMAE-IgG1 3G12 (conjugate)
heavy: B1 heavy
light: B1 light
For the molecule B2, in the data set on 293T-ENPP1 cells [6], the cell killing effects result was “specific cell killing effects”. Moreover, in the data set on HepG2 cells [7], the “killing effects of free MMAE and ADC compared” value is given as “comparable”.

B3: MMAE-IgG1 17 (conjugate)
heavy: B1 heavy
light: B1 light with V83A, V85T, Y92D, S94F, R95P, I96L, Q100G, L104V
Turning to B3, in the data set on 293T-ENPP1 cells [6], the cell killing effects result is on record as “specific cell killing effects”. In addition, the “killing effects of free MMAE and ADC compared” value in the data set with HepG2 cells [7] was “comparable”.
